# Experimental data reported in article PMC10726135.
# This is one part of the list. At the low end of the ranking the order means little. The protein was read in a cell extract, so binding may be indirect.
# Molecular target: T1, HNF4alpha8 (COS-7 nuclear extract) (UniProt P41235-5)
# T1 sequence: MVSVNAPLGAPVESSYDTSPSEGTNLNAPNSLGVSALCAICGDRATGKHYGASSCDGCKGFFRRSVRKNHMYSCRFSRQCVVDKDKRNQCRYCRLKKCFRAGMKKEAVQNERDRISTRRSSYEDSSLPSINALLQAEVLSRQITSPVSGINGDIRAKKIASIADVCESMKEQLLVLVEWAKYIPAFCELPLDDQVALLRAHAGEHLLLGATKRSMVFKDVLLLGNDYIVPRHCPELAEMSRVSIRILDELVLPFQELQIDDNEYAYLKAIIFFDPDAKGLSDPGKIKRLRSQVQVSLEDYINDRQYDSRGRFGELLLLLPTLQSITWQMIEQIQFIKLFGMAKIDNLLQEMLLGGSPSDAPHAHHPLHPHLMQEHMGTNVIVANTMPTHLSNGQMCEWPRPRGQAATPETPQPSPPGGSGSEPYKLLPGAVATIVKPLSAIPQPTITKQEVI
# Experiment: protein-binding microarray
# Details: COS-7 nuclear extract on double-stranded Agilent 4x180k PBM; binding buffer, salt, pH and temperature not given; high values mean tight binding; double strand, one strand shown; sequences stand for … in …GCCTAGGGAGATTAGAGTATCGGTCGA
row,Sequence,binding signal (log2 normalized intensity)
1,AACCTGTTCCAAAGTCCACCGTGGTGTAGA,5.07
2,CATCCCCTAAAACATCAAATACCTCCAAGA,0.697
3,TTCCTGGCCTCTCTGCAAATTTGCCTTGTC,0.448
4,ACTATTTTCCTAAATATGTTCCAAAGTTCA,4.37
5,GTTAGACAGTGCCTATGTTGGAATGCCTAA,-1.24
6,TTACTGTGTAAACTTTGCAGCAGATAATTA,-1.19
7,GTCCAGAGTCCACGTACTTAACTACTACAC,1.48
8,TATTTCACAGGGATAAGCATGGAGATGAGT,-0.169
9,CACACCCCACGTACATTGCACCCTCCAGGA,2.53
10,ATCTCACTAACAGTGTTCCTCGTGTGTTCT,2.17
11,TCCAAAATCTGCATCCCCAAGCTGTTATTC,2.05
12,ATTCCACACTGCAGGCTCTGTCCCCGCCCA,3.09
13,CTGGTAGCAGGGGTGGTTCATTTGCACTTG,1.78
14,ATCGCTTCCAGGGTTACCGGCAGAGAGAAG,-1.25
15,ATACCACTGATAAGGTTCCAGCAAAGAGAT,-0.56
16,TACTTAGTGTTTTATGTGTATTTACTTATT,1.74
17,CAAACCAAAAAGTTGGTTGGAGCTATGGGC,-1.18
18,TGGACCTGCTCTGTTTTCTTTCGGTCACCC,2.16
19,CTTAGGGAACAAAGGTCAGTCCCGCAGTGA,5.44
20,TGATCCTGGTAGCAGGGGTGGTTCATTTGC,1.36
21,CTCCCCCTTTCTCCGCTAAGTGGCTCGACA,2.41
22,GTCCAAGTCACTATCACCTCTCCCACCTGA,2.26
23,CTGGGCCCTGCCTGACCTGCCCTTTGTCCC,6.91
24,CATTGTGTGCAGACCTTCTCTGGCCCTCAC,-0.0778
25,TGACCTGGAGCATGACCCTTTGCAGGTGGG,2.44

row,Sequence,binding signal (log2 normalized intensity)
1,ATTAAATCTTGTTGGCTTGACGCTAACTTC,-1.2
2,ACCCTGCAATTCCCCTGGGCCCACGGCTCT,-1.35
3,TAGGCATTCTTAGACACAGTCTGAGATAGA,-1.35
4,GCTCAGTCCAAGTCCAAAGGTCTGAGAACC,4.88
5,TGGGAGCCTTGCACACTCGCCTGGCTCCCC,-1.29
6,CCTTCACTATTTTCAAAGGTCAACATACAG,3.49
7,GGATTTTTTCTTGGACTTTGGTCATCCTTT,7.39
8,TAAAATTCCCTGTGGAATTTTAAGCTTCAC,-1.08
9,GTTCCCCCGTGTAGACACTCATCCCTTGCA,2.07
10,AGGTGAAGGCTGACCACGGGGGCCGCTCTC,-1.27
11,CCCCCTATCCCAAGACATCAATTAACTTGT,3.09
12,TACACAACAGCACTTGTGCAGTTTTTCTGC,-1.33
13,TAAGATACTGAAATGCCAAAAAAGAAGAAG,-1.35
14,GAGGGAACGCCCGACGCGAAGGCAGTGTGG,-1.16
15,AGCATGGAGATGAGTGGGTTCACTTTGAGC,1.77
16,CCCACCTCTCAGACAGAGCTGGTCTGTGCT,-1.28
17,TTGTTGTTATCCATTTAAAAAGTATTTATT,0.32
18,CCAGTTTTCCCAAAGGAGCTTTATTGGTTC,1.15
19,TTGGAATGTTCCAAGACCTTTGAAGCTTGC,2.94
20,GGCCATGTGCAGAGGAGGGGGCAGGAGCCC,-1.3
21,GTTTTGTGAGTTTTCTTCTGAAATTGCTCA,-0.253
22,TCGCAGTCATAAATACTCATTATGTTGCTG,-1.2
23,TGGAAGAGCCTGCAAGGGAGACCAGGAAAG,-1.19
24,GACGAGCTGTCACTGGCTGCTGCTCAGGAG,-1.23
25,GCCCTTTGCCCTTTGCCCAACCCTCTCCCA,6.2

row,Sequence,binding signal (log2 normalized intensity)
1,TTGATCAGGGACCTTTGTTCCTTTACACAT,4.02
2,CTTTGGAACCTGCCCTCTGTCCCATGGTGT,2.85
3,TCCCCTCCCTCAGCTCTGCCCAGACCTTAT,3.84
4,TGTGCAAAATACCTGGAAGTATTTATTGAG,0.655
5,GTTATCTCATTACTCTGCATAAGGACCTCC,1.12
6,CCAAGGTTCTCCAGGGACCCCCCGACCCCA,5.59
7,GTGCTCCCTCCCCCTGCATGAACCTTTGCT,3.72
8,AGAAAAAGGAGCAGATGGCTAGTGACTCAG,-1.31
9,CTGCACCCTACGTAAATGCACGGAAGCCTT,-1.3
10,CTGGCCTGCTGGGAACTCAGGATCAAACAG,-1.23
11,CTTTATCTCTCTCTCTTTCTTCCCCCACTC,4.52
12,TTTGGCTGGTAGAGCAGGTTTCAGAGGCTC,-1.01
13,AGAGTTAGCTAAGCTTCACTGACATTCCAG,-0.937
14,GTCCGGCAGAGCTATGGAATTTTGGCCTTT,3.88
15,CTATTTCTGACCTTTGCACCAGAGATAATA,6.97
16,GGATCAATGGATCCACTCAGTATGGCAACC,-1.11
17,AGGGCTGAAGGTTAATTCGCTCATCAATGG,1.16
18,TTCCACTGACTTGCAACCTTTGCCCTGTTG,7.2
19,GGCCAGATAAAGCAGGTTGTACCTTGACCC,9.73
20,TCCTCAGGGAGGAAGGCAACCACAGCCTCT,-1.24
21,AAGTCCAAAGTTCTTGGCCAGGCATGGAGA,2.75
22,CCCCACCCCACTCCACCTACGCTACGCACC,4.25
23,ACCCAGAGCCCCACCGTTGTGTAATCTCTT,1.41
24,TGAAATATGCCCAGAGCTTTGTTCTGTTCC,0.565
25,TGTTGCTCTCTTGCCATTCGTGGATGAGCG,-1.33

row,Sequence,binding signal (log2 normalized intensity)
1,CTGGGAGGTAAACTGTAAACCTTTGAAATG,1.12
2,CTTGAGGAGCCCTATCCGCAGCTGCTGACA,-1.37
3,TATCAGCTCTCCGTGGACTTTGCCCCCTAC,11.3
4,TATGTGTGTGCTTTAACAAGGTGTGTTTGA,1.75
5,TCAGACAAGTTGCAGGGATGGACTTTAATC,7.17
6,ATGGGCCCCAGTAAAAACAGTGGGCCTTAA,-1.37
7,AGATAAAAAGGCTAGAGCGCGCTGGAATCT,-1.32
8,CCTTTGAGATAGCTATGATTATCCTTATCT,-0.293
9,GAGTGTATAGTGGCACTGTTATGACCCATT,2.73
10,AGGAAACTCTTTCCTAACAGTGAATGTTTC,0.554
11,GAGGACTTTGATCAGCAATGGAGAGTGATC,3.05
12,GCTGCTCAGTTTAAGTCAAAATATAAGGTC,1.76
13,ACTTGAAGACATTCCAAGAAGAGCCAATAG,-1.32
14,CCTAAACAGCAACTGTAGTGCATAGTGGGT,0.567
15,ACTGTCTAGCTGTGTAACCCTGGACAAGTT,0.855
16,GACACCTTCAGGGCTGAGCCCACAGTCCAG,-1.36
17,GCTGTGTGGCATGGTGTTTTGCCTTACACA,0.866
18,TAGGGCCCATGCCCTTAGCCACTGCATGAT,-0.914
19,TGAACTGACTGGGGTTAACGTCCAAAGGTA,3.29
20,GTGAGGAATGCAACCACACCAACATGGACT,2.07
21,ATACTGCCTTTCTAGAACCAGAATTCCAGA,-1.26
22,CTTTGAGCATCGCTGGACTCTGCTCCTAAG,4.67
23,ATTCTTGTCAATGACCCTAATGGGGTACTT,2.36
24,GGCTGTGAAATATTTGAGTTCTTCAAGTCA,0.463
25,AGGCAGCCACCCACAAGCCAAGGAGAGAGG,-1.24

row,Sequence,binding signal (log2 normalized intensity)
1,GGGCCTACCTGCCTGAGCTATCTGTTTGAG,-1.23
2,CTGCCTTATCGTATTCTTATCAATACCTGT,1.36
3,AGTATCATGTTGGCATTCCAGGATGAAGGA,-0.0479
4,CACTGTTTATTTTGTGTGATACTCAAGGCA,1.66
5,TTAAGGCCAGATGGCCACCCTTCAGCAAAT,-1.27
6,GCTGTCCAAGGTGCTAGCTCCGACTCAGTG,-1.33
7,TAATGGCAGAATCAAAGGTCAAAATATCTG,4.27
8,GAACCCACATCACTGGCCAAAGGTAATAGG,0.524
9,GGAACACGAGGTGAGAGGCGGAACAAGGCT,-1.24
10,CAGTCTATCAGACCAGCATTCTTTCTGCTG,-1.19
11,GGCATCTACTTTTAAAACGCTCAAATAAGC,-1.33
12,CAAACCTTTGACCTTTCCATAGTTCCGAGT,4.3
13,ACCAGGCAGTTTCCCGGTTCCTGATCTCAG,-0.87
14,GGTGGAATGGAAAGAATATGAACTTTGGAA,6.33
15,AATATAGGATCATGTTGTCTGCAAACAGAG,-0.445
16,CACCTTCTTTCTCCCAGAGGTCGATCTGAT,2.25
17,CAGACCCTGGAATTCCAGAAATCTTACTGA,-1.36
18,TACCATTCCCACCCCATTTCACAGCAACCT,1.42
19,TTTGAGGATTATGGAGATGGAGATGGCCTG,0.867
20,CTGAACTTTTGGCTCCCTGGGGTTAAAATG,2.5
21,CCACGCCCGCCGCCAGGTGGCCGAGCAGGA,-1.3
22,GATTACATTGAGTCCACTGAGATCACTTGG,0.973
23,CCCCGGGGCCGCCTTGGAAAACCCGGCGCG,-1.19
24,ATTACTGACCCTTGCACTGTAAGATCAAGA,4.11
25,ACAGGCTTTGAGCATCGCTGGACTCTGCTC,4.91

row,Sequence,binding signal (log2 normalized intensity)
1,CCACAGTCCTTAAGATCCAAAGGAGTGGTC,0.496
2,TAAGTTTCTGTCTCACCTGTAAATGTCTCT,0.512
3,TAATGCGACTTGCCTTGTGTACTCTATCCA,1.21
4,GCGGTCCGGACTCTGCCCCACAATTCTTGG,3.12
5,TTGCCTACATAAGGAGCAGCACTTTGACCT,5.88
6,TTTGGGGGTTGGTATTACAAAGCAATCTAC,0.18
7,TGCTAGACAAGGGAATTACTCTTCTATTAC,-1.29
8,TTGGCCTCTACAGCTACTCCAGCTGGAGAA,-1.04
9,GTCATAAATACTCATTATGTTGCTGATAAA,1.18
10,CAATTCCTTATCTCGTTCTGATAGCAAGGA,1.51
11,CAAAGGGCACCCTTGATGTGTATTTGTAGC,1.61
12,TTGCTTAAGCTTTCTGTCTGCAGCTGAACC,1.42
13,ACCTTTCTCCCTTTTCACAGGAGAGGAGAA,0.813
14,GGTTTTCGGTTTTCAAATGAACCCGGCAGG,2.45
15,TATAGTTTATCTACCTTTGTACCTTTAGTA,4.65
16,GGCCATCTTCCTCAACATGATGCTTTAGGC,-0.578
17,CAAGAGTGACCTTTGCTCCAGTTCCCAATA,6.59
18,ATGACAATAAATTATACCAACTATTTAAGA,-1.36
19,TGATCCTGAAGACAAAGCACAATCAAAGCA,-1.35
20,CAACTTAACCCCAGTTTAGCAATTTGCTCT,0.99
